# Results taken from PubChem BioAssay AID588855 (National Center for Advancing Translational Sciences (NCATS), 2011).
# About 5,000 (1.2%) of roughly 410,000 compounds were called active. The shares of active, inactive and inconclusive entries below differ from those in the screen. The call rests on the fitted dose curve; in most records, active means well fitted inhibition curve with a large enough effect; inconclusive means small, poorly fitted or top-dose-only effect; inactive means no such curve, though single readings can be large or run the other way. Where the call is inconclusive, the potency comes from a doubtful curve fit.
# Assay: qHTS for Inhibitors of TGF-b; further: nearly all actives have a fitted effect of over 65% in size
# Conditions: HepG2 CAGA-GFP TGF-b/SMAD3 reporter, GFP fluorescence, 18 h, TGF-beta stimulated, 500 pg/mL final; series mostly up to 46.1 µM
# Procedure, shortened: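 GFP signal (ex488/em500-530) from TGF-beta-stimulated HEPG2 CAGA-GFP cells, 500 pg/mL final, 18 h at 37 degrees C in DMEM plus 1% FBS, normalized to unstimulated and DMSO-stimulated controls.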
# Potency means the concentration at half of the fitted maximal effect; tags describe the fitted curve by direction and shape.
row,Structure (SMILES),Potency
1,CC1(c2ccc(F)cc2)OC(=O)c2c1ccc1ccccc21 (configuration not stated),inactive
2,Cc1ccc(Cl)cc1NC(=O)CSc1nc2c(c(=O)[nH]1)CN(Cc1ccccc1)CC2,"inconclusive: 17.8 µM [inhibitor, single point]"
3,COc1ccc(S(=O)(=O)N2CCN(CC(=O)Nc3ccc(Cl)c(C(F)(F)F)c3)CC2)cc1,"inconclusive: 6.31 µM [inhibitor, full curve, poor fit]"
4,O=C(Nc1ccc(Cc2ccncc2)cc1)c1cccc([N+](=O)[O-])c1,"inconclusive: 12.6 µM [inhibitor, partial curve, poor fit]"
5,CNC(=O)CCn1nc(-c2ccc(C)cc2)c2ccccc2c1=O,"inconclusive: 11.2 µM [inhibitor, partial curve]"
6,O=C1CS(=O)(=O)N(Cc2cccc(F)c2)c2ccc(Br)cc21,"inconclusive: 11.2 µM [inhibitor, partial curve, poor fit]"
7,Cn1ccc2c(N3CCCC3)cc3c(c21)C1CCC3C1 (configuration not stated),"inconclusive: 22.4 µM [inhibitor, partial curve, poor fit]"
8,CCOc1ccc(CNC(=O)c2sc3ncnc(N(C)C4CCCCC4)c3c2C)cc1,"inconclusive: 10 µM [inhibitor, partial curve, poor fit]"
9,NC(=O)c1ccccc1NC(=O)Cn1nc(Cc2cccnc2)c2ccccc2c1=O,"inconclusive: 35.5 µM [inhibitor, single point]"
10,COc1cc(N(C)C)ccc1C=c1c2ccccc2n2c1cc(-c1ccccc1)[n+]2C,active: 3.55 µM
11,CN=C(Nc1cc(Cl)ccc1Cl)SC1CC(=O)N(c2ccc(C(=O)OC)cc2)C1=O (configuration not stated),"inconclusive: 0.631 µM [inhibitor, full curve, poor fit]"
12,Cc1ccc(N=C2NC(=O)/C(=C\c3ccsc3)S2)c(C)c1,"inconclusive: 22.4 µM [inhibitor, single point]"
13,CC(C)(C)c1ccc2oc(=O)cc(-c3cccc(-c4ccc(C(F)(F)F)cc4)c3)c2c1,"inconclusive: 35.5 µM [inhibitor, single point]"
14,O=C(CSC1=Nc2ccccc2N=C(c2ccc(F)cc2)C1)NCc1ccccc1Cl,"inconclusive: 6.31 µM [inhibitor, single point]"
15,CCOc1ccc(CCNC(=O)CCOc2cc(C)ccc2C)cc1OCC,inactive
16,Cn1c(CN2CCCC2)nc2cc(NC(=O)COc3ccc(Cl)cc3)ccc21,"inconclusive: 15.8 µM [inhibitor, single point]"
17,Cc1cc(NCCN2CCOCC2)n2ncc(-c3ccccc3)c2n1,inactive
